# According to PubChem BioAssay AID504332 (National Center for Advancing Translational Sciences (NCATS), 2011):
# Several values for one entry are separate records, joined by “and”; a condition that tells them apart may be missing. Equal values may be shown once. The whole screen tested about 350,000 compounds, of which about 31,000 (8.9%) were called active. The inconclusive results got no clear call from the source; some entries with a clear call stand among them for comparison. Calls follow the shape of the dose curve; as a rule, active = well fitted inhibition curve with a large enough effect; inconclusive = small, poorly fitted or top-dose-only effect; inactive = no such curve, though single readings can be large or run the other way. Potencies of inconclusive entries are doubtful fits and often do not repeat.
# Target: Histone-lysine N-methyltransferase EHMT2 (Homo sapiens) (UniProt Q96KQ7)
# Assay: qHTS Assay for Inhibitors of Histone Lysine Methyltransferase G9a; also: nearly all actives have a fitted effect of over 75% in size
# Details: G9a H3K9 monomethylation, AlphaScreen, 2 h; activity, negative = inhibition: at 59 µM (top of the series) unless noted
# Outline: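 Methyltransferase reactions run at room temperature for 2 h (20 nM enzyme, 500 nM biotin-H3K9 peptide, 20 uM SAM) after a 15 min compound preincubation; product detected by AlphaScreen beads and anti-H3K9me1 antibody.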
# % is scaled to controls: 0 for no effect and ±100 for the full control effect; potency is read from the fitted curve at half-maximal effect; tags tell the direction and shape of the fitted curve.
# UniProt Q96KQ7, sequence (Q96KQ7 whole entry, looked up): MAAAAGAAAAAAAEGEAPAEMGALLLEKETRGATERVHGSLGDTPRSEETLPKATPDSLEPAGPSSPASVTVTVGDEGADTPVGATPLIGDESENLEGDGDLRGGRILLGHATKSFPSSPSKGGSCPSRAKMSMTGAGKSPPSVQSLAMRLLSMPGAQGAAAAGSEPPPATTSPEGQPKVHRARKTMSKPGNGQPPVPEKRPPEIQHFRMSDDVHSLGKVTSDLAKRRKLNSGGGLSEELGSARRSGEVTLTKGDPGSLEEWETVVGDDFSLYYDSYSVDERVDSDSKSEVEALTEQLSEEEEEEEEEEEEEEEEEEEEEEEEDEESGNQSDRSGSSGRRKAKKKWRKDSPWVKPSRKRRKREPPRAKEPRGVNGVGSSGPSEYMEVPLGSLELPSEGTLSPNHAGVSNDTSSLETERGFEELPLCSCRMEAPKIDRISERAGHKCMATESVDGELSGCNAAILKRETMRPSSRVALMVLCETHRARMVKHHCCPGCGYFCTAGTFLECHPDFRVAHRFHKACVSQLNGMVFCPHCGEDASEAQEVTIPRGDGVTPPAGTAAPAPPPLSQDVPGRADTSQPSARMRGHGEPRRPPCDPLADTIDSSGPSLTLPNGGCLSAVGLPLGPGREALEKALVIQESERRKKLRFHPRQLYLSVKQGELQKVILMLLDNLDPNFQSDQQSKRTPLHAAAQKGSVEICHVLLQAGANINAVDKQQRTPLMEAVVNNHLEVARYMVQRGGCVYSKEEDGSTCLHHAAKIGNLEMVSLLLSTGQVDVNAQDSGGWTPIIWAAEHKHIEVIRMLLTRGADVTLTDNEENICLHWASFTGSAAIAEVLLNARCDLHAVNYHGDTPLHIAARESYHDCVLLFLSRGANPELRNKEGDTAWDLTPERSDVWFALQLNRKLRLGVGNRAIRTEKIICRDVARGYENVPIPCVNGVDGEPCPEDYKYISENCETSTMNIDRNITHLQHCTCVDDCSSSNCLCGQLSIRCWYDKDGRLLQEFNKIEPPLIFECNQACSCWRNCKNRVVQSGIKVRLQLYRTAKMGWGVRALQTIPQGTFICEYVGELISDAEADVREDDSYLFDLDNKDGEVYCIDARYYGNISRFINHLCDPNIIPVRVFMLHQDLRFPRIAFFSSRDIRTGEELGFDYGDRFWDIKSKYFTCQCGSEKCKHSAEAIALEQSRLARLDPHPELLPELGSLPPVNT
Compound,Potency,"activity, negative = inhibition"
COc1ccc(N2CCN(C(=O)CNC(=O)c3ccccc3Cl)CC2)cc1,"inconclusive: 89.1 µM [inhibitor, single point]",–
Cc1cc(NC(=O)CN(c2cccc(C)c2C)S(=O)(=O)c2ccccc2)ccc1Br,"inconclusive: 0.562 µM [inhibitor, full curve]",–
CC1CN(/C(=N\S(=O)(=O)c2ccccc2)c2ccccc2)CC(C)O1 (stereo not given),"inconclusive: 100 µM [inhibitor, partial curve, poor fit]",–
Cc1ccc(N=C2NC(=O)S/C2=C\c2ccco2)cc1,"inconclusive: 28.2 µM [inhibitor, single point]",–
CCOC(=O)N1CCN(c2cc(=O)n(-c3ccccc3Cl)c(=O)[nH]2)CC1,"inconclusive: 39.8 µM [inhibitor, single point]",–
O=C(NCc1ccccc1F)c1ccc(S(=O)(=O)N2CCCCCC2)cc1,"inconclusive: 7.08 µM [inhibitor, single point]",–
Cc1cc[n+](CC(=O)c2ccc(NC(=O)c3ccccc3)cc2)cc1,"inconclusive: 39.8 µM [inhibitor, partial curve, poor fit]",–
CCOc1ccccc1Nc1ccc2cc(S(=O)(=O)N3CCCCC3)ccc2n1,"inconclusive: 12.6 µM [inhibitor, partial curve, poor fit]",–
O=C(Nc1c(O)c2ccccc2[nH]c1=O)c1ccco1,–,inconclusive: -67% [inhibitor]
CCCOc1ccc(C(=O)CCC(=O)Nc2ccc(N3CCN(C)CC3)cc2)cc1,"inconclusive: 5.62 µM [inhibitor, single point]",–
Cc1nc2ccc(Cl)cc2nc(C)/c1=N\O,active: 28.2 µM,–
CC(=O)c1sc(NC(=O)C2=NN(c3ccccc3)C(=O)CC2)nc1C,active: 25.1 µM,–
CNc1cc(C)nc(-n2nc(C)cc2C)n1,–,inactive: 19.7%
CCC(C)[C@@H](C(=O)NCC1CCC(C(=O)O)CC1)n1nnc2ccccc2c1=O (stereo not given in full),"inconclusive: 89.1 µM [inhibitor, partial curve, poor fit]",–
Cc1cccc(-c2nnc(SCCC(=O)O)o2)c1,"inconclusive: 39.8 µM [inhibitor, partial curve, poor fit]",–
C/C(=N/Nc1nc(C)c(C)s1)c1cccc([N+](=O)[O-])c1,active: 35.5 µM,–
O=C(c1cnn2c(C(F)(F)F)cc(-c3ccco3)nc12)N1CCc2ccccc2C1,–,inconclusive: -83.4% [inhibitor]
O=C(Nc1cccc(NC(=O)c2ccco2)c1)c1ccc([N+](=O)[O-])cc1,"inconclusive: 50.1 µM [inhibitor, partial curve]",–
Cc1cc(C)n(CC(=O)N2CCCC(N3CCN(Cc4ccc5c(c4)OCO5)CC3)C2)n1 (stereo not given),active: 79.4 µM,–
COc1ccc(/C=C(\NC(=O)c2ccccc2)C(=O)NCc2ccco2)cc1OC,–,inactive: 13.6% [at 102 µM]
O=[N+]([O-])c1ccc(C(c2sc3nc(-c4ccco4)nn3c2O)N2CCC3(CC2)OCCO3)cc1 (stereo not given),"inconclusive: 28.2 µM [inhibitor, single point]",–
N#Cc1ccsc1NC(=O)CN1CCN(Cc2ccccc2)CC1,"inconclusive: 79.4 µM [inhibitor, partial curve, poor fit]",–
CC(C)c1ccc(CN2C(=O)NC3(CCCCCC3)C2=O)cc1,–,inactive: -6.59% [at 102 µM]
CC1CCN(CC(=O)N2c3ccccc3CC2C)CC1 (stereo not given),–,inactive: -3.68% [at 102 µM]

Compound,Potency,"activity, negative = inhibition"
c1ccc(N2CCN(c3nc4cc5c(cc4s3)OCO5)CC2)cc1,–,inconclusive: -79.3% [inhibitor] [at 12.7 µM]
O=S(=O)(/C=C/c1ccccc1)NCc1ccccc1Cl,–,inactive: 27.2%
Cc1cccc(NC(=O)CN2C(=O)CCc3ccccc32)c1C,–,inactive: -9%
Oc1ccc(Nc2nc(-c3cccs3)cs2)cc1,"inconclusive: 31.6 µM [inhibitor, single point]",–
Cc1ccc(-c2nc3ccccc3[nH]2)cc1NC(=O)c1ccc2c(c1)OCO2,"inconclusive: 39.8 µM [inhibitor, partial curve, poor fit]",–
C[N+](C)(C)CC(=O)N/N=C/c1c2ccccc2cc2ccccc12,active: 35.5 µM,–
COc1ccccc1NC(=S)NNC(=O)c1nn(C)c(C)c1Cl,"inconclusive: 3.55 µM [inhibitor, full curve, poor fit]",–
C/C=C\C=C/C(=O)Nc1cccc(C2=NOC3(C2)C[C@@H](C(N)=O)N(C(=O)c2ccccc2)C3)c1 (stereo not given in full),"inconclusive: 31.6 µM [inhibitor, single point]",–
Cn1c(=O)[nH]c(=O)c2c1nc(OC(=O)c1ccccc1)n2CC(O)COc1ccc(F)cc1 (stereo not given),"inconclusive: 35.5 µM [inhibitor, single point]",–
Cc1ccc(-c2nn(-c3ccccc3)cc2/C=N/n2c(-c3cccs3)n[nH]c2=S)cc1,"inconclusive: 22.4 µM [inhibitor, full curve]",–
Cc1ccc(S(=O)(=O)N2CCN(C(=O)CC(C)C)CC2)cc1,–,inactive: 3.05% [at 102 µM]
N#Cc1nc(Cc2ccccc2)oc1NCCc1ccccc1,"inconclusive: 3.16 µM [inhibitor, partial curve, poor fit]",–
CCOC(=O)N1CCN(C(=O)C2CCN(Cc3ccc(OC)cc3OC)CC2)CC1,active: 7.94 µM,–
Cc1ccc(-c2n[nH]c(=S)n2/N=C/c2c(C)nn(-c3ccccc3)c2C)cc1,active: 10 µM,–
COc1cc(C2CC(=O)Nc3cc4c(cc32)OCCO4)cc(OC)c1O (stereo not given),"inconclusive: 25.1 µM [inhibitor, partial curve, poor fit]",–
COc1ccc(Nc2cc(C)nc3nc(C)nn23)c(OC)c1,"inconclusive: 79.4 µM [inhibitor, single point]",–
CCOC1OC(=O)C(Cl)=C1Nc1ccc(C)cc1 (stereo not given),–,inactive: 21.3% [at 102 µM]
CC(=O)n1cc([C@H]2C=C(C(=O)Nc3ccccc3)O[C@@H](OCCCCO)C2)c2ccccc21,–,inconclusive: -56.1% [inhibitor]
COc1ccccc1NS(=O)(=O)c1cc(NC(=O)C2CC2)ccc1N1CCOCC1,active: 8.91 µM,–
Fc1cccc2sc(Nc3nc4ccccc4s3)nc12,"inconclusive: 8.91 µM [inhibitor, single point]",–
Cc1ccc(C)c2[nH]c(=O)c(CN(Cc3ccco3)C(=S)NCC3CCCO3)cc12 (stereo not given),active: 39.8 µM,–
CC(=O)NC1C(OCc2ccccc2)OC2COC(c3ccccc3)OC2C1OCC(=O)O (stereo not given),–,inactive: 20.3% [at 12.7 µM]
CC1(c2ccccc2)CC(C)(C)N(C(=O)c2ccccc2Cl)c2ccccc21 (stereo not given),–,inactive: -7.33%
O=C(Nc1nc(-c2ccc(Cl)s2)cs1)c1ccco1,active: 39.8 µM,–

Compound,Potency,"activity, negative = inhibition"
O=C(CN1CCOCC1)n1c2ccccc2c2ccccc21,"inconclusive: 89.1 µM [inhibitor, single point]",–
N#Cc1c(NC(=O)C2CC(c3ccccc3O)=NO2)sc2c1CCC2 (stereo not given),active: 8.91 µM,–
CCN(C(=O)c1cc2c(Cl)nc3ccc(C)cc3c2s1)c1cc(OC)ccc1OC,–,inactive: 2.85%
CCCCNS(=O)(=O)c1ccc(NC(=O)Cc2ccccc2[N+](=O)[O-])cc1,"inconclusive: 35.5 µM [inhibitor, partial curve]",–
COc1ccccc1CNC(=O)c1cc(-c2ccccc2)n[nH]1,"inconclusive: 3.98 µM [inhibitor, partial curve, poor fit]",–
O=C(CCS(=O)(=O)c1nc(-c2cccs2)cc(C(F)(F)F)n1)Nc1cccc(O)c1,"inconclusive: 10 µM [inhibitor, partial curve]",–
CCOc1ccc(-c2csc(/C(C#N)=C\c3ccc(O)c([N+](=O)[O-])c3)n2)cc1,"inconclusive: 2 µM [inhibitor, partial curve, poor fit]",–
CCc1cccc(C)c1N(C(=O)Cn1c(=O)[nH]c2ccccc21)C(C)COC (stereo not given),"inconclusive: 0.708 µM [inhibitor, full curve, poor fit]",–
O=C(CN1CCN(Cc2ccc3c(c2)OCO3)CC1)c1c[nH]c2ccccc12,"inconclusive: 8.91 µM [inhibitor, partial curve, poor fit]",–
CCC(C)c1ccccc1NC(=O)C(C)N(C)Cc1cccc(OC)c1 (stereo not given),active: 10 µM,–
Cc1cc(NC(=O)CN2C(=O)CC(c3ccco3)Sc3ccccc32)no1 (stereo not given),active: 12.6 µM,–
O=C(NCCNC(=O)c1ccccc1Cl)c1ccco1,active: 50.1 µM,–
COc1ccc(C(=S)N2CCN(c3cccc(Cl)c3)CC2)c(OC)c1,active: 10 µM,–
CCCc1cc(=O)oc2cc(C)c3c(-c4ccccc4)c(C)oc3c12,"inconclusive: 6.31 µM [inhibitor, partial curve, poor fit]",–
CN=C(Nc1cc(C)nn1CCC#N)c1ccccc1F,"inconclusive: 17.8 µM [inhibitor, single point]",–
CC(C)NC(=O)c1sc2ncccc2c1-n1cccc1,–,inactive: 5.56%
O=C(C1=C(O)C(=O)N(Cc2ccccc2)C1c1ccncc1)c1ccco1 (stereo not given),active: 39.8 µM,–
CC(/C=N\N1CCN(c2ccc(Cl)cc2)CC1)=C\c1ccccc1,–,inactive: -48% [at 102 µM]
CC(C)N=C(NC#N)SCc1ccccc1,"inconclusive: 8.91 µM [inhibitor, single point]",–
CCOc1ccccc1N(CC)C(=O)c1cc2ccc3cccnc3c2[nH]1,"inconclusive: 22.4 µM [inhibitor, partial curve, poor fit]",–
Cc1ccc(-c2noc(CCC(=O)NCc3ccccc3CN3CCOCC3)n2)cc1,"inconclusive: 0.708 µM [inhibitor, partial curve, poor fit]",–
Cn1c2ccc(F)cc2c2nnc(SCCN3CCCCC3)nc21,"inconclusive: 8.91 µM [inhibitor, partial curve] and inconclusive: 79.4 µM [inhibitor, single point]",–
